# Results: EP4603099A1 (priority 2022, dated 2024)
# Test system: IAV-GFP
# Settings: read-out: IC50 (GFP level); mouse cell line LA-4 infected with IAV-GFP (m.o.i. 1) for 19 hours
substance,measurement,value
trifluoromethyl tubercidin [TFMT],IC50,7.7 µM
